From the RNAGym collection of RNA variant scans (doi:10.1073/pnas.2313332121)
Variants at the background level are over-represented here.

B1: TPR 5TU (parent)
chain: GGAUCUUCUCGAUCUAACAAAAAAGACAAAUCUGCCACAAAGCUUGAGAGCAUCUUCGGAUGCAGAGGCGGCAGCCUUCGGUGGCGCGAUAGCGCCAACGUUCUCAACUAUGACACGCAAAACGCGUGCUCCGUUGAAUGGAGUUUAUCAUG

Variants of: B1
Test: polymerase ribozyme fitness, log enrichment relative to wild type (log ratio); higher = more active; in vitro selection for triplet polymerase activity
How it was run: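 A single round of triplicate in vitro selection, including frozen incubation at −7 °C, was applied to PCR-built, transcribed mutant libraries of each subunit of a heterodimeric triplet polymerase ribozyme. Illumina sequencing of input and output libraries retained genotypes with ≥10 input reads and ≥1 read per output. Fitness is the base-2 logarithm of genotype enrichment divided by wild-type enrichment, from inverse-variance-weighted replicate averages.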
In the case of A19C G126U U145A, the “polymerase ribozyme fitness (log ratio)” value is reported as -0.56. In the case of A19C U31A C57A C95G C105A G128C C149A, the “polymerase ribozyme fitness (log ratio)” value is reported as ≤ -4.2. In the case of A19C U31A G34A C69U G71A G81A G84C C87A A97U G124C, the “polymerase ribozyme fitness (log ratio)” value is reported as ≤ -4.2. In the case of A19C U44A C79A A97U C149U, the “polymerase ribozyme fitness (log ratio)” value is reported as ≤ -4.2. In the case of A19C U45A A73G C79U C132U U139A G141C, the “polymerase ribozyme fitness (log ratio)” value is reported as ≤ -4.2. In the case of A19C U45A A91G A107C, the “polymerase ribozyme fitness (log ratio)” value is reported as ≤ -4.2. In the case of A19C U45C C87G A110G C116A, the “polymerase ribozyme fitness (log ratio)” value is reported as ≤ -4.2. With A19C U53A the “polymerase ribozyme fitness (log ratio)” value was -1.57. For A19C U53G C85U G92A C103A G141C, the “polymerase ribozyme fitness (log ratio)” value was ≤ -4.2. In the case of A19C U55A U61A C76U G94C C99G U135A G143U, the “polymerase ribozyme fitness (log ratio)” value is reported as ≤ -4.2. For A19C U55G C96A C108G C116G A119C, the “polymerase ribozyme fitness (log ratio)” value was ≤ -4.2. For A19C U56A A91U A147C, the “polymerase ribozyme fitness (log ratio)” value was ≤ -4.2. For A19C U56A U104A A119U, the “polymerase ribozyme fitness (log ratio)” value was -0.197. For A19C U61A C87U C96G A97C C99U A110C, the “polymerase ribozyme fitness (log ratio)” value was ≤ -4.2. In the case of A19G A20C A24G C76A C79A U148A, the “polymerase ribozyme fitness (log ratio)” value is reported as ≤ -4.2. In the case of A19G A20G A24C C36U U55G G117C U135A A142C, the “polymerase ribozyme fitness (log ratio)” value is reported as ≤ -4.2. With A19G A20U C36U C96G the “polymerase ribozyme fitness (log ratio)” value was -3.67. With A19G A20U C54U G133U U145G the “polymerase ribozyme fitness (log ratio)” value was ≤ -4.2. With A19G A21U C87U A97U C116U A137C A138C the “polymerase ribozyme fitness (log ratio)” value was ≤ -4.2. For A19G A22C A28G C36A C95U C105G, the “polymerase ribozyme fitness (log ratio)” value was ≤ -4.2. With A19G A22C G42C U53A G58C C103G C108G the “polymerase ribozyme fitness (log ratio)” value was ≤ -4.2. In the case of A19G A23G A24G A97G C131G, the “polymerase ribozyme fitness (log ratio)” value is reported as ≤ -4.2. For A19G A23G G50A U55A U56C A106U U109C, the “polymerase ribozyme fitness (log ratio)” value was ≤ -4.2. With A19G A23U A30C G48U U56C A60U C87U the “polymerase ribozyme fitness (log ratio)” value was ≤ -4.2. With A19G A23U C38U G42U G68A U82A the “polymerase ribozyme fitness (log ratio)” value was ≤ -4.2. In the case of A19G A23U G50A G71A A73G G94A, the “polymerase ribozyme fitness (log ratio)” value is reported as ≤ -4.2. In the case of A19G A24C A28C A39U A40G A113G, the “polymerase ribozyme fitness (log ratio)” value is reported as ≤ -4.2. In the case of A19G A24G A66G G68C C96G, the “polymerase ribozyme fitness (log ratio)” value is reported as ≤ -4.2. With A19G A24G C43A G59A the “polymerase ribozyme fitness (log ratio)” value was ≤ -4.2. In the case of A19G A24U U77G C93U, the “polymerase ribozyme fitness (log ratio)” value is reported as ≤ -4.2. For A19G A28U A60C G83U, the “polymerase ribozyme fitness (log ratio)” value was ≤ -4.2. For A19G A29C A30C U82G, the “polymerase ribozyme fitness (log ratio)” value was ≤ -4.2. In the case of A19G A29C G68C U78A U90C A98G A121G, the “polymerase ribozyme fitness (log ratio)” value is reported as ≤ -4.2. In the case of A19G A30C G74A U78A C87A G136A, the “polymerase ribozyme fitness (log ratio)” value is reported as ≤ -4.2. With A19G A37C U55C C125U G141C U146G the “polymerase ribozyme fitness (log ratio)” value was ≤ -4.2. For A19G A39G U56A C96U A120C A138G G141A, the “polymerase ribozyme fitness (log ratio)” value was ≤ -4.2. With A19G A41C G59A G62A A73U C118G A150U the “polymerase ribozyme fitness (log ratio)” value was ≤ -4.2. In the case of A19G A41U C57U G84U U146A A147U U151A, the “polymerase ribozyme fitness (log ratio)” value is reported as ≤ -4.2. For A19G A41U C93A G141A, the “polymerase ribozyme fitness (log ratio)” value was ≤ -4.2. In the case of A19G A49C U53A U90C U134A U145G, the “polymerase ribozyme fitness (log ratio)” value is reported as ≤ -4.2. For A19G A49C U55A A91U C105U C132G, the “polymerase ribozyme fitness (log ratio)” value was ≤ -4.2. For A19G A52G G94C C108U A150U, the “polymerase ribozyme fitness (log ratio)” value was ≤ -4.2. For A19G A89C U134G, the “polymerase ribozyme fitness (log ratio)” value was -3.68. For A19G A91C C116A G141A U145G, the “polymerase ribozyme fitness (log ratio)” value was ≤ -4.2. For A19G A122C G136C A142C, the “polymerase ribozyme fitness (log ratio)” value was -3.74. In the case of A19G C27A C57A G92U A97G G133A U134G, the “polymerase ribozyme fitness (log ratio)” value is reported as ≤ -4.2. With A19G C27G A29G A41C G48C A49G U53A C72G C87A the “polymerase ribozyme fitness (log ratio)” value was ≤ -4.2. For A19G C27U, the “polymerase ribozyme fitness (log ratio)” value was -1.17. In the case of A19G C27U A28U G50A A52U G86U C118U, the “polymerase ribozyme fitness (log ratio)” value is reported as ≤ -4.2. With A19G C35U A52U A66C U134A the “polymerase ribozyme fitness (log ratio)” value was ≤ -4.2. For A19G C36A C87G C108A C118U, the “polymerase ribozyme fitness (log ratio)” value was ≤ -4.2. In the case of A19G C36A G67A C87U C95G U111C, the “polymerase ribozyme fitness (log ratio)” value is reported as ≤ -4.2. In the case of A19G C38A C57U U82C C95G C99U, the “polymerase ribozyme fitness (log ratio)” value is reported as ≤ -4.2. In the case of A19G C43A C51U C57U G84C U102G U139A A142U, the “polymerase ribozyme fitness (log ratio)” value is reported as ≤ -4.2. For A19G C43U A66G C75G C95A, the “polymerase ribozyme fitness (log ratio)” value was ≤ -4.2. For A19G C51A U55A G133A, the “polymerase ribozyme fitness (log ratio)” value was ≤ -4.2. For A19G C51G A91U C93A C118G G136A, the “polymerase ribozyme fitness (log ratio)” value was ≤ -4.2. For A19G C51U A52C A60U G65A G84U C85A C87U A98C A138G, the “polymerase ribozyme fitness (log ratio)” value was ≤ -4.2. In the case of A19G C54A C85G U90C G133A U144G, the “polymerase ribozyme fitness (log ratio)” value is reported as ≤ -4.2. In the case of A19G C54G G70A A73G G92A A106G C116G A137G, the “polymerase ribozyme fitness (log ratio)” value is reported as ≤ -4.2. For A19G C54U G92A C118A C149U, the “polymerase ribozyme fitness (log ratio)” value was ≤ -4.2. With A19G C57A G65A the “polymerase ribozyme fitness (log ratio)” value was -2.01. For A19G C57A G94C C95A, the “polymerase ribozyme fitness (log ratio)” value was ≤ -4.2. In the case of A19G C76U C85A U151G, the “polymerase ribozyme fitness (log ratio)” value is reported as ≤ -4.2. With A19G C79A G94U A119U A142C G152U the “polymerase ribozyme fitness (log ratio)” value was ≤ -4.2. For A19G C87A, the “polymerase ribozyme fitness (log ratio)” value was ≤ -4.2. For A19G C87A C116A G143C U145G G152U, the “polymerase ribozyme fitness (log ratio)” value was ≤ -4.2. For A19G C96U C123U, the “polymerase ribozyme fitness (log ratio)” value was -0.681. With A19G C96U U101G the “polymerase ribozyme fitness (log ratio)” value was -0.801. In the case of A19G C99G A119G G143U, the “polymerase ribozyme fitness (log ratio)” value is reported as ≤ -4.2. In the case of A19G C116G U148G A150G, the “polymerase ribozyme fitness (log ratio)” value is reported as ≤ -4.2. With A19G G25C G50C A52G G83U G117U G143A the “polymerase ribozyme fitness (log ratio)” value was ≤ -4.2. In the case of A19G G25U C32G U33A A40C A49G U55A C85U A106C, the “polymerase ribozyme fitness (log ratio)” value is reported as ≤ -4.2. With A19G G34U C38U A60G C87G C93A the “polymerase ribozyme fitness (log ratio)” value was ≤ -4.2. For A19G G42C A52G C87A U111C A113U G143U, the “polymerase ribozyme fitness (log ratio)” value was ≤ -4.2. With A19G G46U A49C A66C C79A U102G the “polymerase ribozyme fitness (log ratio)” value was ≤ -4.2. With A19G G46U U53G G94A A137C A138U U144A the “polymerase ribozyme fitness (log ratio)” value was ≤ -4.2. With A19G G48A C75G C93A the “polymerase ribozyme fitness (log ratio)” value was ≤ -4.2. For A19G G48C G86A C103U C108G, the “polymerase ribozyme fitness (log ratio)” value was ≤ -4.2. With A19G G50C G80C A98U G124A A150U the “polymerase ribozyme fitness (log ratio)” value was ≤ -4.2. In the case of A19G G50U A119G A137G U148C, the “polymerase ribozyme fitness (log ratio)” value is reported as ≤ -4.2. For A19G G58C G59C, the “polymerase ribozyme fitness (log ratio)” value was 0.18. With A19G G70C C118G the “polymerase ribozyme fitness (log ratio)” value was ≤ -4.2. With A19G G74A G88A the “polymerase ribozyme fitness (log ratio)” value was ≤ -4.2.
